Drawing on PMC9574860, “Chemical Toolkit for PARK7: Potent, Selective, and High-Throughput” (Journal of Medicinal Chemistry, 2022), this text covers Inhibition % for 83 compounds.

Each structure is given as a SMILES string. About 400 (5.1%) of roughly 7,900 compounds showed an effect of 50% or more. Some of the results follow.

The target in the test is Parkinson's disease protein 7 (PARK7/DJ1) (human, UniProt Q99497). Briefly: primary screen, percent inhibition; read as competition with a fluorescent probe by fluorescence polarization; higher = more effect of the substance. The following applies: 100 µM. The procedure: The screen was conducted using the conditions as described above in 1536-well plates (Corning 3724) with a reaction volume of 8 μL per well. The compound library containing 7887 covalent fragments was purchased at Enamine Ltd. and received as 100 mM DMSO stocks in 384 well LDV Echo plates (Labcyte LP-0200). Stock solutions of 0.26 μM PARK7 and 80 nM JYQ-107 were prepared. Using a Labcyte Echo550 acoustic dispenser, 8 nL of the DMSO stock solution of the library compounds was transferred from the source plates into the empty 1536-well screening plates to obtain a 100 μM final compound concentration. Next, PARK7 (6 μL, final concentration 0.2 μM) was dispensed using a Biotek MultiflowFX liquid dispenser and incubated for 2 h, followed by dispensing the probe JYQ-107 (2 μL, final concentration 20 nM). After 2 h incubation, the FP signal was recorded on a BMG Labtech PHERAstar plate reader (λex/em 480/520 nm). The relative loss of FP signal compared with reference controls was used to calculate the remaining enzyme activity.
Sequence of Parkinson's disease protein 7 (PARK7/DJ1) (Q99497 whole entry, looked up, the tested form may be a part): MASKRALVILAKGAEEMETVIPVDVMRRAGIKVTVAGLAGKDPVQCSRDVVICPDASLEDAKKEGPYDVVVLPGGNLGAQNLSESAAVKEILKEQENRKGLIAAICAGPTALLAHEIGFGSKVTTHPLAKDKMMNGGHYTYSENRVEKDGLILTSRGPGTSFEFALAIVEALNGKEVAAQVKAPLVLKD
In the case of `C=CC(=O)N1CCOC(c2ccsc2)C1` (centres unmarked), the Inhibition % was determined as 12.2%. For `Cc1ccc(Cl)c(NC(=O)CCl)c1Cl`, the Inhibition % turned out to be 4.19%. As for `COCc1cccnc1C#N`, the Inhibition % came out at 2.34%. For the compound `C=CC(=O)N1CCC2(CCSCC2)CC1`, the Inhibition % was 5.26%. As for `CNCc1n[nH]c(=O)o1.Cl`, the Inhibition % is listed as 8.56%. To `COc1cccc(OC(=O)N2CCOCC2)c1` belongs 9.05%.

Turning to `C=CC(=O)N1CC2COCC(C1)O2`, the Inhibition % is 8.25%. To `N#CC(=Cc1cccs1)C(=O)Nc1nccs1` belongs 8.67%; to `COc1ccnc(NC(=O)c2cccnc2S)c1`, 12.9%. With `Cc1cc(C)cc(N(CCC#N)C(=O)CCl)c1`, the Inhibition % is on record as 9.52%. Consider `Cc1ccccc1-c1noc(=O)n1CC(=O)N1CCCC1`, for which the Inhibition % is on record as 2.07%. For `COC(=O)C1CC(S(=O)(=O)F)CN1C(=O)C1CC1C` (centres unmarked), the Inhibition % is recorded as 13.7%. For `C=CC(=O)Nc1cc2c(cc1Cl)OCCO2`, the Inhibition % was found to be 4.65%.

Regarding `COCCCS(=O)(=O)N1CCC(Cl)CC1`, the Inhibition % came out at 7.37%. For `CCC1(CNS(=O)(=O)C=Cc2ccccc2)CCOCC1`, the Inhibition % is given as 6.07%. In the case of `O=C(NCC1(CCO)CCOC1)c1cccnc1S` (centres unmarked), the Inhibition % stood at 0.877%. Take `O=C(CCl)NC(=O)Nc1ccc2c(c1)OCCO2`: the Inhibition % amounted to 7.05%. Turning to `C=CC(=O)NCC1CCN(c2ccncc2)CC1`, the Inhibition % is on record as 15.3%.

Regarding `Cc1cccc(OC(=O)N2CCOCC2)c1`, the Inhibition % turned out to be 13.3%.

`C=CC(=O)N1CCCC(NC(C)=O)C1` (centres unmarked): the Inhibition % was found to be 8.6%. The result for `C=CC(=O)N1CC=C(c2ccc(OC)cc2)C1` reads 1.78%. For `C=CC(=O)NC1CCc2nc(C)nn2C1` (centres unmarked), the Inhibition % is 12.2%. Consider `ClCCOc1ccccc1`, for which the Inhibition % came to 4.27%. On to `CC1(C)OB(c2cnc3occc3c2)OC1(C)C`, for which the Inhibition % amounted to 5.49%. As for `COc1ccccc1NC(=O)C(C#N)=Cc1ccco1`, the Inhibition % was 3.38%.

As for `ClCCCc1cccnc1`, the Inhibition % was determined as 7.37%. `Cc1cnc(=S)[nH]c1`: the Inhibition % turned out to be 8.44%. `O=C1CN=C(S)N1CC1CCCO1` (centres unmarked): the Inhibition % worked out at 4.73%. For the compound `CN1CC(=O)N(CCCl)C1=O`, the Inhibition % was found to be 7.13%. To `CNC(=O)C(C#N)=Cc1cc(C)n(CCC(C)C)c1C` belongs 0.301%; to `CN(Cc1ccccc1OC(F)(F)F)C(=O)n1ccnc1`, 4.13%.

For the compound `C=CC(=O)N1CCC(S(=O)(=O)NC(C)C)C1` (centres unmarked), the Inhibition % came out at 7.14%.

With `Cc1ccc(-n2nc(C)cc2NC(=O)CCl)cc1.Cl`, the Inhibition % is 26.9%. For `SCCc1c[nH]c2ccccc12`, the Inhibition % is on record as 20.7%. With `OB(O)c1ccc(Cn2cccn2)c(F)c1`, the Inhibition % is listed as -0.275%. The result for `C=CC(=O)NC1CCOCC1C` (centres unmarked) reads -3.2%; that for `Sc1nc2ccccc2nc1S`, 8.25%; that for `COc1ncc(B2OC(C)(C)C(C)(C)O2)cn1`, 4.41%.

On to `Cc1ccc(C)c(OCCCn2cnc(C#N)n2)c1`, for which the Inhibition % is reported as 2.57%. For `CC1(C)OB(c2ccc(N)nc2)OC1(C)C`, the Inhibition % stood at 9.29%. Regarding `C=CC(=O)NC1(c2ccc(F)cn2)CC1`, the Inhibition % is on record as 8.51%. In the case of `O=C(CCl)C1CCC(F)(F)CC1`, the Inhibition % was 96.8%. As for `C=CC(=O)Nc1ccc2c(n1)OCCO2`, the Inhibition % is reported as 1.66%.

As to `C1COC2(CCC3(CC2)CO3)O1`, the Inhibition % is on record as 4.9%. Regarding `Cc1nnc(SC2CC(C)OC2=O)n1-c1ccccc1` (centres unmarked), the Inhibition % came out at 6.93%. On to `O=C(Nc1ccccc1)N1CCC(C2OCCO2)CC1`, for which the Inhibition % was determined as 11.2%. In the case of `C=CC(=O)N1CCN(S(=O)(=O)c2nnc[nH]2)CC1`, the Inhibition % came to 4.36%. Turning to `Cn1cc(C=C2N=C(c3ccccc3)OC2=O)cn1`, the Inhibition % turned out to be 3.97%. As for `O=C(CCl)NC(=O)c1cccs1`, the Inhibition % was 23.4%. `Cc1cccc2c(C#N)nccc12`: the Inhibition % was -0.133%. For `O=C(CCl)NCc1cccc(NC(=O)C2CC2)c1`, the Inhibition % turned out to be 11.4%. Take `O=C(CCl)N1CCN(C(=O)c2cccs2)CC1`: the Inhibition % was 40.3%. In the case of `O=C1OCCC1Sc1nc2ccccc2s1` (centres unmarked), the Inhibition % is recorded as 13.4%. In the case of `CN(C#N)Cc1ccccc1`, the Inhibition % is 62.8%. The result for `COc1cccc(CNC(=O)n2ccnc2)c1` reads 95.1%.

On to `COc1cc(S(=O)(=O)n2cccn2)c(C)cc1C`, for which the Inhibition % was 5.05%.

Regarding `CCOc1ccc(C(C)C)cc1S(=O)(=O)n1cnc(C)c1`, the Inhibition % amounted to 6.97%. With `C=CC(=O)Nc1cccc(C#N)c1`, the Inhibition % is listed as 4.68%. As to `C=CC(=O)NCc1cccc(OC(C)(C)C)n1`, the Inhibition % is listed as 4.11%. `Cc1ccc(SC2CCOC2=O)cc1` (centres unmarked): the Inhibition % stood at 0.89%. In the case of `CC1(C)OB(c2ccc(S(N)(=O)=O)cc2)OC1(C)C`, the Inhibition % is 26.8%. To `CC1CN(c2ccc(C#N)nc2)CC(c2ccsc2)O1` (centres unmarked) belongs 10.3%; to `C=CC(=O)N1CC23CCCCC2(COC3)C1` (centres unmarked), 8.4%; to `CN(Cc1cc(Br)cs1)C(=O)CCl`, 42.9%.

As for `Cl.O=C(CCl)N1CCN(Cc2cccs2)CC1`, the Inhibition % worked out at 3.64%.

Regarding `O=C(O)[C@H]1CCCN(C(=O)C=CC2CC2)C1`, the Inhibition % turned out to be 9.02%. Consider `OB(O)c1ccc(-c2ccccc2F)cc1`, for which the Inhibition % was determined as 0.486%. `C=CC(=O)NC1CCN(C(=O)NC2CCCCC2)CC1`: the Inhibition % is 10.5%. On to `Clc1ccc(OCC2CO2)c(Cl)c1` (centres unmarked), for which the Inhibition % was 4.9%. Consider `N#CN(Cc1ccno1)c1ccc(F)cc1`, for which the Inhibition % worked out at 15.5%. Consider `C=CC(=O)N1CCCCC1`, for which the Inhibition % worked out at 3.77%. To `C=CC(=O)N1CCC(C)C(OC)C1` (centres unmarked) belongs 7.85%; to `CS(=O)(=O)OCC1(C#N)CCCC1`, 11.5%; to `CC1(C)CN(c2nccnc2C#N)C1(C)C`, 0.332%. To `N#Cc1cccc(NCCCC2CCCCO2)n1` (centres unmarked) belongs 8.44%. In the case of `Cl.O=C(CCl)N1CCN(Cc2ccc3c(c2)CCO3)CC1`, the Inhibition % is 2.96%.

For the compound `COc1ccc(C(C)=CB2OC(C)(C)C(C)(C)O2)cc1`, the Inhibition % came to 5.19%. On to `C=CC(=O)N(C)C1CCS(=O)(=O)CC1`, for which the Inhibition % worked out at 10.1%. In the case of `CC1(C)OB(c2ccc(C(F)(F)F)nc2)OC1(C)C`, the Inhibition % is listed as 1.49%.

Take `CNC(=O)c1cncc(C=CC(=O)N2CCCC(N)C2)c1.Cl` (centres unmarked): the Inhibition % is 9.43%.

Consider `Sc1ncccc1Cl`, for which the Inhibition % stood at 2.79%.

For the compound `COC1(C)CCCN(c2ccc(C#N)nc2)C1` (centres unmarked), the Inhibition % stood at 13.8%. As to `Cn1nc(C(F)(F)F)cc1B1OC(C)(C)C(C)(C)O1`, the Inhibition % is 0.786%.
